Reference: the supplement of paper PMC12217912
The other results are listed elsewhere or left out. Sequences were assembled here from the parent chain. Values near 0.05 are background.

B1: TEV protease; numbered along this chain (parent)
chain: MGESLFKGPRDYNPISSSICHLTNESDGHTTSLYGIGFGPFIITNKHLFRRNNGTLVVQSLHGVFKVKDTTTLQQHLVDGRDMIIIRMPKDFPPFPQKLKFREPQREERICLVTTNFQTKSMSSMVSDTSCTFPSGDGIFWKHWIQTKDGQCGSPLVSTRDGFIVGIHSASNFTNTNNYFTSVPKNFMELLTNQEAQQWVSGWRLNADSVLWGGHKVFMVKPEEPFQPVKEATQL

Variants of: B1
Assay: raw area under fraction-flipped curve 0-4 h after induction (AUC4h, not background-subtracted), DNA-recorder readout of cleavage of the substrate (dimensionless); higher = more cleavage of the substrate by the protease variant
Settings: temperature: 34 °C; time window: 0-4 h after rhamnose induction
Protocol: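 In vivo DNA recorder in E. coli TOP10(DE3) ΔrhaA at 34 °C. Each TEVp single-site mutant (parent TEVp 0) is paired with a single-site variant of the 7-mer TEVs (canonical ENLYFQ|S). The substrate sits between flexible linkers in a Bxb1-sfGFP-TEVs-SsrA fusion, so cleavage stabilises Bxb1 and speeds flipping of a recombination array, read by NGS. The value is the raw area under the fraction-flipped curve over 0-4 h after rhamnose induction (AUC4h), with ≥20 reads per time point. It is not background-subtracted; inactive controls average about 0.047.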
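Also: Bxb1 expression induced with 0.2% (w/v) L-rhamnose at OD600 near 0.5, cultures sampled hourly, flipped fraction per protease–substrate barcode pair counted by paired-end Illumina sequencing.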

Variant	area with substrate ENLYAQS	area with substrate ENLYCQS	area with substrate ENLYDQS	area with substrate ENLYEQS	area with substrate ENLYGQS	area with substrate ENLYHQS	area with substrate ENLYIQS	area with substrate ENLYKQS	area with substrate ENLYMQS	area with substrate ENLYPQS	area with substrate ENLYRQS	area with substrate ENLYTQS	area with substrate ENLYVQS	area with substrate ENLYWQS	area with substrate ENLYYQS	area with substrate ENLYNQS	area with substrate ENLYQQS	area with substrate ENLYSQS	area with substrate ENLYLQS
MGESLFKGPRDYNPISSSICHLTNESDGHTTSLYGIGFGPFIITNKHLFRRNNGTLVVQSLHGVFKVKDTTTLQQHLVDGRDMIIIRMPKDFPPFPQKLKFREPQREERICRVTTNFQTKSMSSMVSDTSCTFPSGDGIFWKHWIQTKDGQCGSPLVSTRDGFIVGIHSASNFTNTNNYFTSVPKNFMELLTNQEAQQWVSGWRLNADSVLWGGHKVFMVKPEEPFQPVKEATQL [L112R]	0.0977	0.0743	0.0547	0.0524	0.0695	0.0554	0.107	0.0223	0.0829	0.0677	0.064	0.0897	0.0674	0.11	0.0544				
MGESLFKGPRDYNPISSSICHLTNESDGHTTSLYGIGFGPFIITNKHLFRRNNGTLVVQSLHGVFKVKDTTTLQQHLVDGRDMIIIRMPKDFPPFPQKPKFREPQREERICLVTTNFQTKSMSSMVSDTSCTFPSGDGIFWKHWIQTKDGQCGSPLVSTRDGFIVGIHSASNFTNTNNYFTSVPKNFMELLTNQEAQQWVSGWRLNADSVLWGGHKVFMVKPEEPFQPVKEATQL [L99P]	0.0755		0.0656	0.067	0.0596	0.07	0.111	0.0231		0.0945		0.0727		0.0732		0.0695	0.0634		
MGESLFKGPRDYNPISSSICHLTNESDGHTTSLYGIGFGPFIITNKHLFRRNNGTLVVQSLHGVFKVKDTTTLQQHLVDGRDMIIIRMPKDFPPFPQKLKFREPQTEERICLVTTNFQTKSMSSMVSDTSCTFPSGDGIFWKHWIQTKDGQCGSPLVSTRDGFIVGIHSASNFTNTNNYFTSVPKNFMELLTNQEAQQWVSGWRLNADSVLWGGHKVFMVKPEEPFQPVKEATQL [R106T]	0.0777	0.0811	0.0629	0.0784	0.0705	0.0827	0.0947	0.0418	0.094	0.0748	0.0601	0.0899	0.106	0.0779		0.0536	0.0679	0.0779	
MGESLFKGPRDYNPISSSICHLTNESDGHTTSLYGIGFGPFIITNKHLFRRNNGTLVVQSLHGVFKVKDTTTLQQHLVDGRDMIIIRMPKDFPPFPQKLKFREPQREERICLVTFNFQTKSMSSMVSDTSCTFPSGDGIFWKHWIQTKDGQCGSPLVSTRDGFIVGIHSASNFTNTNNYFTSVPKNFMELLTNQEAQQWVSGWRLNADSVLWGGHKVFMVKPEEPFQPVKEATQL [T115F]	0.0728			0.0681	0.0723	0.0662		0.0759	0.0727	0.0561		0.0687			0.0662			0.089	
MGESLFKGPRDYNPISSSICHLTNESDGHTTSLYGIGFGPFIITNKHLFRRNNGTLVVQSLHGVFKVKDTTTLQQHLVDGRDMIIIRMPKDFPPFPQKLKFREPQREERICLVTTNFMTKSMSSMVSDTSCTFPSGDGIFWKHWIQTKDGQCGSPLVSTRDGFIVGIHSASNFTNTNNYFTSVPKNFMELLTNQEAQQWVSGWRLNADSVLWGGHKVFMVKPEEPFQPVKEATQL [Q118M]	0.0858	0.0686	0.0443	0.0721	0.0755	0.0661			0.0731	0.0741				0.085	0.0563			0.0636	
MGESLFKGPRDYNPISSSICHLTNESDGHTTSLYGIGFGPFIITNKHLFRRNNGTLVVQSLHGVFKVKDTTTLQQHLVDGRDMIIIRMPKDFPPFPQKLKFREPQREERICLVATNFQTKSMSSMVSDTSCTFPSGDGIFWKHWIQTKDGQCGSPLVSTRDGFIVGIHSASNFTNTNNYFTSVPKNFMELLTNQEAQQWVSGWRLNADSVLWGGHKVFMVKPEEPFQPVKEATQL [T114A]	0.0713	0.0829	0.0625	0.0615	0.0511	0.0619	0.124	0.0787	0.0604	0.0725	0.0701				0.0525	0.0908	0.0711	0.0784	
MGESLFKGPRDYNPISSSICHLTNESDGHTTSLYGIGFGPFIITNKHLFRRNNGTLVVQSLHGVFKVKDTTTLQQHLVDGRDMIIIRMPKDFPPFPQKLKFREPQREERICLVWTNFQTKSMSSMVSDTSCTFPSGDGIFWKHWIQTKDGQCGSPLVSTRDGFIVGIHSASNFTNTNNYFTSVPKNFMELLTNQEAQQWVSGWRLNADSVLWGGHKVFMVKPEEPFQPVKEATQL [T114W]	0.0771	0.0602	0.0571	0.0562	0.0653	0.0554		0.0625	0.0907	0.103	0.0624	0.0878	0.106	0.0787	0.0711	0.0614	0.0539	0.0757	0.0756
MGESLFKGPRDYNPISSSICHLTNESDGHTTSLYGIGFGPFIITNKHLFRRNNGTLVVQSLHGVFKVKDTTTLQQHLVDGRDMIIIRMPKDFPPFPQKLKFREPQRHERICLVTTNFQTKSMSSMVSDTSCTFPSGDGIFWKHWIQTKDGQCGSPLVSTRDGFIVGIHSASNFTNTNNYFTSVPKNFMELLTNQEAQQWVSGWRLNADSVLWGGHKVFMVKPEEPFQPVKEATQL [E107H]	0.0455				0.0748				0.099	0.0564	0.0574			0.0884		0.0756	0.0559		
MGESLFKGPRDYNPISSSICHLTNESDGHTTSLYGIGFGPFIITNKHLFRRNNGTLVVQSLHGVFKVKDTTTLQQHLVDGRDMIIIRMPKDFPPFPQKLKFREPQREERICLQTTNFQTKSMSSMVSDTSCTFPSGDGIFWKHWIQTKDGQCGSPLVSTRDGFIVGIHSASNFTNTNNYFTSVPKNFMELLTNQEAQQWVSGWRLNADSVLWGGHKVFMVKPEEPFQPVKEATQL [V113Q]	0.0597	0.0643	0.0554	0.072		0.0605		0.0343	0.0544	0.0696		0.0655	0.0633		0.0631	0.0585	0.0593		
